What was measured:
[1] = target: T1, [35S]methionine-labeled IκB-α 1-269 (in vitro translated) (UniProt P25963 1-269, [35S]methionine label); test: GST pulldown of [35S]-labeled in vitro translated protein, autoradiography
T1 construct: Translated in vitro from pcDNA3
T1 sequence (looked up): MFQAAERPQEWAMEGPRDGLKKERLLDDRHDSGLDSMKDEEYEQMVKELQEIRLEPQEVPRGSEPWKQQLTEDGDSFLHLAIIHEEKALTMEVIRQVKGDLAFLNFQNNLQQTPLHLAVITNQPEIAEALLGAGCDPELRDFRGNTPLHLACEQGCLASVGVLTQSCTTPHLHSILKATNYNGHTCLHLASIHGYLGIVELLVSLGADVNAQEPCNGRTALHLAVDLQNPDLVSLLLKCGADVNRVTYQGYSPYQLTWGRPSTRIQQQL

[2] = target: T2, [35S]methionine-labeled IκB-α 1-317 (in vitro translated) (UniProt P25963 1-317, [35S]methionine label); test: as above
T2 construct: Translated in vitro from pcDNA3 (T7 promoter); also called IκB-α wild type
T2 sequence (looked up): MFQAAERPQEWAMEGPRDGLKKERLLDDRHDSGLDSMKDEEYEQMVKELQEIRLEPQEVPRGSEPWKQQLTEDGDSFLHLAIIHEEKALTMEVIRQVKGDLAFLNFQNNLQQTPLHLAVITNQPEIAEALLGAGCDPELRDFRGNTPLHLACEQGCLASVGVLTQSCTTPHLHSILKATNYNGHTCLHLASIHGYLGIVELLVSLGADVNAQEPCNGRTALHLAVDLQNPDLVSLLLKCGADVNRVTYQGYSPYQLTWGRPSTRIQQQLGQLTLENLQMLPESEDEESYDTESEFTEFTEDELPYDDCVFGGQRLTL

[3] = target: T3, [35S]methionine-labeled IκB-α 1-263 (in vitro translated) (UniProt P25963 1-263, [35S]methionine label); test: as above
T3 construct: Translated in vitro from pcDNA3
T3 sequence (looked up): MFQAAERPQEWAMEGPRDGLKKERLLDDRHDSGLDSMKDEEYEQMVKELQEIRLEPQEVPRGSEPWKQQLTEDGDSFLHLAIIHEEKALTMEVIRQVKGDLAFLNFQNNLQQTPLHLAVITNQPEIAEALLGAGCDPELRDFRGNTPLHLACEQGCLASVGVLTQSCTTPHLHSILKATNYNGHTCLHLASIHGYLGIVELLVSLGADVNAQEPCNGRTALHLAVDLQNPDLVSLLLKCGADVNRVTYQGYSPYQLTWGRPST

[4] = target: T4, HA-IκB-α (pCMV4-HA-IκB-α 1-317, expressed in transfected cells) (UniProt P25963 1-317); test: GST pulldown from extracts of transfected HeLa cells, MEFs and p50-/- p65-/- MEFs, anti-HA Western blot
T4 sequence (looked up): T2 sequence (looked up)

Measured: binding result

B1: GST (other)
chain: not shown
notes: Negative control in the pulldowns; also called GST protein; GST alone
no binding: [1] | [2] | [3] | [4]

From patent US20100093618A1 (published 2010)
